Drawing on patent US20220332813A1 (UNIVERSITY OF MARYLAND BALTIMORE, published 2022), this text covers Kd for two molecules.

The target in this assay is T1, full-length human LRP1 (purified) (human, UniProt Q07954).
T1 construct: also called LDL receptor-related protein 1; purified LRP1
Kind of assay: SPR, full-length LRP1 immobilised. Background: Surface plasmon resonance follows binding to a sensor surface in real time, without labels.

B1: tau mutant S262A (ligand)
chain: not shown
B1 gave a Kd of 230 nM.

B2: tau mutant S262E (ligand)
chain: not shown
The molecule B2 had a Kd of 450 nM.

The term Kd denotes a measure of binding affinity in units of concentration. Read a low Kd as tighter binding.
